# Some of the results follow.
# What was measured:
# Test in all cases: glycan array binding signal (z-score within array); higher = stronger binding
# Conditions in all cases: glycan notation: IUPAC condensed, linker removed
# GlcNAc(b1-6)GalNAc = target: GlcNAc(b1-6)GalNAc
# Outline: (§1)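 The Consortium for Functional Glycomics database supplied 3228 glycan arrays, of which those lacking an available protein sequence were dropped. The binding signal, a within-array Z-score, was averaged across arrays of the same protein sequence and across linkers. Negative scores can be read as non-binding.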
# GlcNAc3Prop(b1-4)GlcNAc = target: GlcNAc3Prop(b1-4)GlcNAc
# Outline: as §1
# Kdn(a2-3)Gal(b1-3)GlcNAc = target: Kdn(a2-3)Gal(b1-3)GlcNAc
# Outline: as §1
# Kdn(a2-3)Gal(b1-4)GlcNAc = target: Kdn(a2-3)Gal(b1-4)GlcNAc
# Outline: as §1
# [1] = target: Man(a1-2)Man(a1-2)Man(a1-3)Man
# Outline: as §1
# [2] = target: Man(a1-2)Man(a1-2)Man(a1-6)[Man(a1-3)]Man
# Outline: as §1
# Man(a1-2)Man(a1-3)Man = target: Man(a1-2)Man(a1-3)Man
# Outline: as §1
# [3] = target: Man(a1-2)Man(a1-3)[Man(a1-2)Man(a1-6)]Man
# Outline: as §1
# [4] = target: Man(a1-2)Man(a1-3)[Man(a1-2)Man(a1-6)]Man(a1-6)[Man(a1-2)Man(a1-2)Man(a1-3)]Man
# Outline: as §1
# [5] = target: Man(a1-2)Man(a1-3)[Man(a1-2)Man(a1-6)]Man(a1-6)[Man(a1-2)Man(a1-2)Man(a1-3)]Man(b1-4)GlcNAc(b1-4)GlcNAc
# Outline: as §1
# [6] = target: Man(a1-2)Man(a1-3)[Man(a1-6)]Man(a1-6)[Man(a1-2)Man(a1-3)]Man(b1-4)GlcNAc(b1-4)GlcNAc
# Outline: as §1
# [7] = target: Man(a1-2)Man(a1-6)[Man(a1-3)]Man(a1-6)[Man(a1-2)Man(a1-2)Man(a1-3)]Man
# Outline: as §1
# [8] = target: Man(a1-2)Man(a1-6)[Man(a1-3)]Man(a1-6)[Man(a1-2)Man(a1-2)Man(a1-3)]Man(b1-4)GlcNAc(b1-4)GlcNAc
# Outline: as §1
# Man(a1-3)[Man(a1-6)]Man = target: Man(a1-3)[Man(a1-6)]Man
# Outline: as §1
# [9] = target: Man(a1-3)[Man(a1-6)]Man(a1-6)[Man(a1-2)Man(a1-3)]Man(b1-4)GlcNAc(b1-4)GlcNAc
# Outline: as §1
# [10] = target: Man(a1-3)[Man(a1-6)]Man(a1-6)[Man(a1-3)]Man
# Outline: as §1
# [11] = target: Man(a1-3)[Man(a1-6)]Man(a1-6)[Man(a1-3)]Man(b1-4)GlcNAc(b1-4)GlcNAc
# Outline: as §1
# [12] = target: Man(a1-3)[Man(a1-6)]Man(b1-4)GlcNAc(b1-4)GlcNAc
# Outline: as §1
# Man(a1-6)Man = target: Man(a1-6)Man
# Outline: as §1
# Man(b1-4)GlcNAc = target: Man(b1-4)GlcNAc
# Outline: as §1
# Neu5Ac(a2-3)Gal = target: Neu5Ac(a2-3)Gal
# Outline: as §1
# [13] = target: Neu5Ac(a2-3)Gal(b1-3)GalNAc
# Outline: as §1
# [14] = target: Neu5Ac(a2-3)Gal(b1-3)GalNAc(b1-3)Gal(a1-4)Gal(b1-4)Glc
# Outline: as §1
# [15] = target: Neu5Ac(a2-3)Gal(b1-3)GalNAc(b1-3)Gal(b1-4)GlcNAc
# Outline: as §1
# [16] = target: Neu5Ac(a2-3)Gal(b1-3)GalNAc(b1-4)[Neu5Ac(a2-3)]Gal(b1-4)Glc
# Outline: as §1
# [17] = target: Neu5Ac(a2-3)Gal(b1-3)GalNAc6S
# Outline: as §1
# [18] = target: Neu5Ac(a2-3)Gal(b1-3)GlcNAc
# Outline: as §1
# [19] = target: Neu5Ac(a2-3)Gal(b1-3)GlcNAc(b1-3)Gal(b1-3)GlcNAc
# Outline: as §1
# [20] = target: Neu5Ac(a2-3)Gal(b1-3)GlcNAc6S
# Outline: as §1
# [21] = target: Neu5Ac(a2-3)Gal(b1-3)[Fuc(a1-4)]GlcNAc
# Outline: as §1
# [22] = target: Neu5Ac(a2-3)Gal(b1-3)[Fuc(a1-4)]GlcNAc(b1-3)Gal(b1-4)[Fuc(a1-3)]GlcNAc
# Outline: as §1
# [23] = target: Neu5Ac(a2-3)Gal(b1-3)[Neu5Ac(a2-3)Gal(b1-4)]GlcNAc
# Outline: as §1
# [24] = target: Neu5Ac(a2-3)Gal(b1-3)[Neu5Ac(a2-6)]GalNAc
# Outline: as §1
# Neu5Ac(a2-3)Gal(b1-4)Glc = target: Neu5Ac(a2-3)Gal(b1-4)Glc
# Outline: as §1
# [25] = target: Neu5Ac(a2-3)Gal(b1-4)GlcNAc
# Outline: as §1
# [26] = target: Neu5Ac(a2-3)Gal(b1-4)GlcNAc(b1-2)Man(a1-3)[GlcNAc(b1-2)Man(b1-4)GlcNAc(b1-2)Man(a1-6)]Man(b1-4)GlcNAc(b1-4)GlcNAc
# Outline: as §1
# [27] = target: Neu5Ac(a2-3)Gal(b1-4)GlcNAc(b1-2)Man(a1-3)[Neu5Ac(a2-6)Gal(b1-4)GlcNAc(b1-2)Man(a1-6)]Man(b1-4)GlcNAc(b1-4)GlcNAc
# Outline: as §1
# [28] = target: Neu5Ac(a2-3)Gal(b1-4)GlcNAc(b1-3)Gal(b1-3)GlcNAc
# Outline: as §1
# [29] = target: Neu5Ac(a2-3)Gal(b1-4)GlcNAc(b1-3)Gal(b1-4)GlcNAc
# Outline: as §1
# [30] = target: Neu5Ac(a2-3)Gal(b1-4)GlcNAc(b1-3)Gal(b1-4)GlcNAc(b1-3)Gal(b1-4)GlcNAc
# Outline: as §1
# [31] = target: Neu5Ac(a2-3)Gal(b1-4)GlcNAc(b1-3)Gal(b1-4)[Fuc(a1-3)]GlcNAc
# Outline: as §1
# [32] = target: Neu5Ac(a2-3)Gal(b1-4)GlcNAc(b1-6)[Gal(b1-3)]GalNAc
# Outline: as §1
# [33] = target: Neu5Ac(a2-3)Gal(b1-4)GlcNAc(b1-6)[Neu5Ac(a2-3)Gal(b1-3)]GalNAc
# Outline: as §1
# [34] = target: Neu5Ac(a2-3)Gal(b1-4)GlcNAc6S
# Outline: as §1
binder,measurement,setting,value
"MUC1-SEA-mFcIgG2a (Homo sapiens), P15941 (SEA domain only) (protein) DAAQPARRAVRSSSELTSEQKLISEEDLSRLVHNGTSARATTTPASKSTPFSIPSHHSDTPTTLASHSTKTDASSTHHSTVPPLTSSNHSTSPQLSTGVSFFFLSFHISNLQFNSSLEDPSTDYYQELQRDISEMFLQIYKQGGFLGLSNIKFRPGSVVVQLTLAFREGTINVHDVETQFNQYKTEAASRYNLTISDASVSDVPFPFSAQSGSDDDDKALEPRGPTIKPCPPCKCPAPNLLGGPSVFIFPPKIKDVLMISLSPIVTCVVVDVSEDDPDVQISWFVNNVEVHTAQTQTHREDYNSTLRVVSALPIQHQDWMSGKEFKCKVNNKDLPAPIERTISKPKGSVRAPQVYVLPPPEEEMTKKQVTLTCMVTDFMPEDIYVEWTNNGKTELNYKNTEPVLDSDGSYFMYSKLRVEKKNWVERNSYSCSVVHEGLHNHHTTKSFSRTPGKHHHHH",glycan array binding signal (z-score),GlcNAc(b1-6)GalNAc,-0.383
same,glycan array binding signal (z-score),GlcNAc3Prop(b1-4)GlcNAc,0.085
same,glycan array binding signal (z-score),Kdn(a2-3)Gal(b1-3)GlcNAc,0.064
same,glycan array binding signal (z-score),Kdn(a2-3)Gal(b1-4)GlcNAc,-0.262
same,glycan array binding signal (z-score),[1],0.607
same,glycan array binding signal (z-score),[2],-0.458
same,glycan array binding signal (z-score),Man(a1-2)Man(a1-3)Man,0.529
same,glycan array binding signal (z-score),[3],-0.325
same,glycan array binding signal (z-score),[4],-0.213
same,glycan array binding signal (z-score),[5],0.324
same,glycan array binding signal (z-score),[6],-0.266
same,glycan array binding signal (z-score),[7],-0.315
same,glycan array binding signal (z-score),[8],-0.21
same,glycan array binding signal (z-score),Man(a1-3)[Man(a1-6)]Man,-0.497
same,glycan array binding signal (z-score),[9],0.067
same,glycan array binding signal (z-score),[10],-0.208
same,glycan array binding signal (z-score),[11],-0.048
same,glycan array binding signal (z-score),[12],-0.235
same,glycan array binding signal (z-score),Man(a1-6)Man,-0.113
same,glycan array binding signal (z-score),Man(b1-4)GlcNAc,-0.473
same,glycan array binding signal (z-score),Neu5Ac(a2-3)Gal,-0.415
same,glycan array binding signal (z-score),[13],0.559
same,glycan array binding signal (z-score),[14],-0.376
same,glycan array binding signal (z-score),[15],-0.254
same,glycan array binding signal (z-score),[16],-0.414
same,glycan array binding signal (z-score),[17],-0.282
same,glycan array binding signal (z-score),[18],-0.171
same,glycan array binding signal (z-score),[19],-0.152
same,glycan array binding signal (z-score),[20],0.15
same,glycan array binding signal (z-score),[21],-0.087
same,glycan array binding signal (z-score),[22],-0.296
same,glycan array binding signal (z-score),[23],-0.394
same,glycan array binding signal (z-score),[24],-0.256
same,glycan array binding signal (z-score),Neu5Ac(a2-3)Gal(b1-4)Glc,-0.399
same,glycan array binding signal (z-score),[25],-0.157
same,glycan array binding signal (z-score),[26],0.15
same,glycan array binding signal (z-score),[27],-0.072
same,glycan array binding signal (z-score),[28],-0.42
same,glycan array binding signal (z-score),[29],-0.354
same,glycan array binding signal (z-score),[30],-0.118
same,glycan array binding signal (z-score),[31],0.606
same,glycan array binding signal (z-score),[32],-0.457
same,glycan array binding signal (z-score),[33],-0.378
same,glycan array binding signal (z-score),[34],-0.21
